Whole data set: some 1,100 sequences, median “thermal melting temperature (Tm) of peptide-HLA complex” near 58, cut for the lowest 2% near 42. This is one part of the list.
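Also: cell lysates heated 10 min at 37–73 °C, remaining pHLA pulled down with pan-class I antibody, peptides quantified by DIA-MS versus 37 °C, Tm where half the complex is lost.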

The target of the experiment is HLA-A*02:01. Kind of experiment: thermal melting temperature (Tm) of peptide-HLA complex; higher = more thermostable pHLA complex. As to conditions: C1R-A*02:01.
ILSKTETNV: the thermal melting temperature amounted to 50.9 °C.
Next, YQTEIGQTL: 52 °C; AILETAPKEV: 58 °C; HLINVEGVGV: 59.7 °C.
Next, KLTENLVAL: 59 °C.
Next, QMISRIEYI: 58.6 °C; SLMSHAIEL: 60.7 °C.
As to AVYEHPSILSL, the thermal melting temperature was 57.6 °C.
Regarding ILISKLLGA, the thermal melting temperature turned out to be 58.9 °C.
Next, FLHPEPFSI: 61.1 °C.
Next, ALIEKLVEL: 64.4 °C; KLLSVLAQV: 58 °C.
As to FAYDGKDYIAL, the thermal melting temperature was determined as 46.3 °C.
Sequence GVLPNIQAV came in with a thermal melting temperature of 55.7 °C.
The value for ALLGILQHV was 63.3 °C; that for QLHAGSLVSV was 59.3 °C.

The values are drawn from the supplement of paper PMC7726561.
